Whole data set: some 33,000 sequences, median “E-score (-0.5 to 0.5)” near -0.011, cut for the highest 2% near 0.28. The list shows a part of the results.
molecular target: T1, Gcr1 (UniProt P07261); assay: PBM E-score (8-mer binding enrichment) (E-score (-0.5 to 0.5)); higher = stronger / more preferred TF binding; most listed sequences are background and not binding sites; details: protein concentration: 100 nM; construct: GST-full length
T1 sequence: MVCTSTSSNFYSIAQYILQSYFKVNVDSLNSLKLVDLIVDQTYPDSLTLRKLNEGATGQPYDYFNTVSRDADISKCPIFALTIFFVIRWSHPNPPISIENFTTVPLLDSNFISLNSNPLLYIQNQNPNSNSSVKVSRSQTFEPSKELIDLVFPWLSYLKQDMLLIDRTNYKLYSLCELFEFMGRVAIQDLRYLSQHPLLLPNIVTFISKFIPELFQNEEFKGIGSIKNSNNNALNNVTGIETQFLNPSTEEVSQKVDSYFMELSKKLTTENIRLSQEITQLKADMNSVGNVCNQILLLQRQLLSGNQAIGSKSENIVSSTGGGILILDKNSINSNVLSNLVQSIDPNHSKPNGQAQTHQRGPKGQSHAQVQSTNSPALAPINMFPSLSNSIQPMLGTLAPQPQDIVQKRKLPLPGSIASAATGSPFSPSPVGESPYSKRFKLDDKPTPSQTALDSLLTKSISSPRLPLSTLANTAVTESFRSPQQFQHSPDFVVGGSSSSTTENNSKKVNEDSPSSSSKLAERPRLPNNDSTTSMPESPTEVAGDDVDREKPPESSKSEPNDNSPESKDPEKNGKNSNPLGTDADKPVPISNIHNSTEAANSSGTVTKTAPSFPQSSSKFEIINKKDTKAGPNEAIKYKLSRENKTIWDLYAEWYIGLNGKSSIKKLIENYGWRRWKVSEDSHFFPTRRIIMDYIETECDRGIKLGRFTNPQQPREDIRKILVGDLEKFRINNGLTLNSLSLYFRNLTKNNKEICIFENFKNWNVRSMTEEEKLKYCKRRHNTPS
Procedure, shortened: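 Yeast transcription factors, full-length or as DNA-binding domains, were expressed with a GST tag using PURExpress in vitro transcription/translation. At about 100-200 nM they were applied to universal all-10-mer Agilent arrays, double-stranded by primer extension on fresh or once-stripped slides. Fluorescent anti-GST detected bound protein, and masliner normalised the scans. E-scores for ungapped eight-base words, pooled with reverse complements, came from the Universal PBM Analysis Suite.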

Sequence	PBM E-score
AGGTTTCC	0.154
AGCTTAGC	-0.27
AAAGCTGA	0.113
GTTATTTA	0.126
ACGAGAGT	-0.0462
CAATCGAC	0.0514
ATGCCGTG	-0.0633
AAGCTAGC	-0.00019
CCATAATC	0.0216
AGGCTGAC	-0.188
ACTGACAG	0.0957
CAGGCGTC	0.09
ATGAACAG	-0.0356
CGACCGAA	-0.144
AAGGGTAT	-0.113
GAAGTTGA	0.0272
GGAATAGA	-0.126
CAGAGAAG	0.115
GCCCGTAA	0.169
AGAGTGCG	0.0318
AGATCTAA	-0.21
AGGTGAAA	0.0254
ACTCACAA	-0.0389
CAATGCCC	-0.0928
CACCGATC	0.0144

Sequence	PBM E-score
CCACTAGC	0.0324
GCGGATCC	0.274
CCACAAGG	-0.00285
AATTCATG	0.0757
ACCACAAT	0.213
GCCGTTCA	-0.102
GAGACCTA	-0.0263
CCATAGAG	-0.0777
AGAGTGGA	0.132
GCGACGAC	-0.0448
GAACGCGC	0.162
ACTACCCG	-0.0834
AAAGCAGC	-0.0508
CTCATCGA	-0.099
CAAAGACG	0.044
AACGCCAC	0.00882
CATGATTA	-0.00157
ACCTCTCA	-0.085
ATGGGGAC	0.125
CTACTAAC	0.139
ATGCCGAC	0.027
GCCGCCGC	0.179
GGCCAACA	-0.225
CCCAGCGA	-0.176
ACACAGAT	-0.0567

Sequence	PBM E-score
CTACCTTC	-0.0216
ACGAGTTC	-0.0282
CAAGACAG	0.0569
CAGCAATG	-0.166
AGACGGTG	0.049
ATATCTGA	0.103
ACCATAAG	-0.105
AGACGACA	-0.133
CATTCCCA	0.103
ACCTGGAA	0.154
ATGCCGCA	-0.038
GAGATTGA	0.116
ACGCCCCC	0.113
CGCACGTA	0.00405
AAACCGCC	-0.114
CCCAGCTA	-0.0278
GCTCATCC	-0.217
TTCACAAA	0.0868
CAGGGATA	0.0069
CAGACGTA	-0.167
GACCAAGA	-0.0879
GTTGAAGA	-0.0128
CCAATGCG	-0.136
ACCATTTA	0.0518
CTGCGGTA	-0.142

Sequence	PBM E-score
GGGCGTAC	-0.041
GAATATTA	0.18
TTACCTAA	0.0557
AGGGACAG	-0.201
ACCGCTGG	-0.115
CAATGCGA	0.0573
CGCCCAAC	0.0623
AATTAGCG	0.0885
AGAACGTA	-0.138
AGTAGCCG	0.0644
ACTTCCAG	0.377
CCCGCGCC	0.0213
GAACTCGC	0.0911
TCTCAACA	0.103
AGAGTAAT	0.115
TCATTGCA	-0.191
CCCTCCCC	0.176
AACAATGA	-0.0104
AATGTCTC	-0.146
ATTCTAAG	0.0378
CTAGCTCC	-0.0243
AGGTCCGA	-0.114
ACTCTTCT	0.0323
GAAGAGGA	0.107
CCTCAAAC	-0.0617

Sequence	PBM E-score
CCACCCCG	0.00394
GCAGGTTA	-0.277
AAATGACT	0.139
AGGGCCCT	-0.17
ATCTGCTC	-0.0662
AAACACAT	0.117
TACTGCTA	-0.227
ACGAGGGG	-0.0844
GCGTTGAC	-0.19
CCCAATAA	0.0668
AGTCGTAC	-0.142
ATCCTCGG	0.0754
TGGAGCAA	0.125
AGAATAGC	0.0451
ACTGCGGG	0.0686
ATCAGACG	0.0535
AGCAAGGA	-0.242
ACAGGTAG	0.229
CACGAGGG	-0.0984
AGGACTAA	-0.114
AGATCCAC	0.183
GAGCGGAA	0.179
AATGTGAC	-0.132
AAAGTCAT	-0.188
AGCCATTG	-0.065

Sequence	PBM E-score
AACAACAA	-0.107
ACTCACTG	-0.0221
AAGTGTAA	-0.0607
CAACGGCC	0.0391
CACCCGTC	-0.0956
CAAGTGGG	0.0622
CGTGTGCA	-0.217
AAACGCGC	0.17
CTGCATGC	-0.0512
AGGGTCTC	-0.108
CTCCGCGC	-0.127
GTTGCAAA	0.0701
AATTAATC	0.087
AATAGCCA	-0.116
GACACTAA	0.104
AAGATCAA	0.167
GATCTCAC	-0.257
CCGACTAA	-0.0699
ATCTATGC	-0.0275
TCTCGTCA	0.0741
AACAGCCC	-0.199
ATCGTACG	-0.0863
AAACGCAC	0.116
GAGAACTC	-0.213
CGCGATAG	-0.0829

Sequence	PBM E-score
AGTGCCTC	-0.258
AGAGAGTA	-0.412
TCTGGAAA	0.231
GCTTATAC	-0.0642
CCCCTCGA	-0.12
CAATGGGC	0.0816
CCCAGGTA	-0.0866
ATGAGCGG	0.0272
GGCTTAAC	-0.122
ACGATTCG	0.0296
CGTGGAGA	0.0235
GTTGGTAA	0.146
ACGTCCAA	0.00712
CGCTGCTA	0.155
TCCACCGA	0.0721
AAGGGATG	-0.0743
GAGGCAAC	-0.0261
CGAGGACG	-0.236
GTACCAAA	0.0559
GGGTTGTA	-0.0845
GATTCGAC	-0.115
ATGGATCC	0.278

Reference: the supplement of paper PMC3334620
